In PubChem BioAssay AID1963576 (National Center for Advancing Translational Sciences (NCATS), 2024):
The campaign covered roughly 46,000 compounds. About 60 (0.1%) were called active. Inconclusive results (about 3%) are left out. Calls follow the shape of the dose curve; as a rule, active = well fitted inhibition curve with a large enough effect; inconclusive = small, poorly fitted or top-dose-only effect; inactive = no such curve, though single readings can be large or run the other way. The list shows a part of the results.

Test: Primary qHTS assay for Inhibitors of ovarian cancer metastasis using an organotypic tumor microenvironment (TME) model. Also: nearly all actives have a fitted effect of over 65% in size.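 As to activity change, negative = inhibition: plate controls were DMSO wells for no effect and tomatine positive control wells for full effect.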
Settings: SKOV3ip1-GFP adhesion/invasion on 3D omental model, fluorescence; series mostly up to 45.8 µM; activity change, negative = inhibition: at the top concentration
Method in brief: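 Primary human omental fibroblast/mesothelial 3D culture pre-formed 48 h. SKOV3ip1-GFP cells added with compounds (0.36-46 umol/L), incubated 2 h RT/16 h 37 C, fixed; GFP cells quantified at 488/509 nm.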

Activity change, negative = inhibition, inactive:
CCCCC(CC)CNC(=O)CCCn1c(=O)[nH]c2ccsc2c1=O (stereo not given) 0.923%
CCN1CCN(c2c(S(=O)(=O)c3ccc(C)c(C)c3)cnc3cc(OC)c(OC)cc23)CC1 -4.79%
CCN(CC)C(=O)c1sc2c(c1C)c(=O)n(-c1ccccc1)c(=O)n2CC(=O)Nc1ccc(C)cc1C 1.97%
Cc1cc(C)cc(NC2=CC(c3cccc(F)c3)N(c3cc(C)cc(C)c3)C2=O)c1 (stereo not given) 31.5%
CCOc1ccc(CC(=O)NCCc2sc3nc(-c4ccc(OC)cc4)nn3c2C)cc1 -13.7%
CC1CCN(C(=O)Cn2c(=O)oc3cc(S(=O)(=O)N4CCCCC4)ccc32)CC1 0.124%
CN(C)S(=O)(=O)c1ccc(C(=O)N2CC(=O)Nc3ccc(Br)cc3C2c2ccc(F)cc2)cc1 (stereo not given) 1.64%
CCOc1cc(CNc2ccc(O)cc2)ccc1OCc1ccc(Cl)cc1 -16.3%
CCOC(=O)c1cc2c(=O)n3ccccc3nc2n(CCCOC)c1=NC(=O)C(C)Oc1ccccc1 (stereo not given) -0.934%
COc1ccc(CNC(=O)CN(c2ccccc2)S(=O)(=O)N(C)C)cc1 8.88%
COc1ccc(C(CNC(=O)COc2ccc(Cl)c(C)c2)N2CCOCC2)cc1 (stereo not given) -2.89%
CCCCSc1ncnc2c1c(-c1ccccc1)cn2-c1cccc(F)c1 -0.0841%
CCN(CC)S(=O)(=O)c1nnc(NC(=O)COc2ccc(Cl)cc2)s1 -0.501%
CCn1c(C(=O)N2CCC(C(=O)NCCc3ccc(OC)cc3OC)CC2)cc2sccc21 4.52%
CCOC(=O)c1c(C)oc2nc(C)nc(Nc3ccc(CC)cc3)c12 2.03%
Cc1cc(C)cc(NS(=O)(=O)c2ccc3c(c2)NC(=O)C(C)S3)c1 (stereo not given) 0.445%
COc1ccc(NC(=O)c2ccc(-c3nc(CSc4ccccc4)c(C)o3)cc2)cc1OC -9.72%
COc1ccccc1Cc1nc2ccccc2[nH]c1=O -1.18%
CCOCCCNC(=O)C1CCC(CNS(=O)(=O)c2ccc(NC(C)=O)cc2)CC1 (stereo not given) -12.8%
Cc1ccc(C)c(CN2C(=O)c3ccccc3S(=O)c3ccc(C(=O)NCc4ccccc4)cc32)c1 (stereo not given) -7.42%
COc1cccc2c1Oc1ncccc1N(C(=O)Nc1ccc(F)c(Cl)c1)C2 4.81%
CCOC(=O)C(CC)Sc1ccc2nnc(CCNS(=O)(=O)c3ccc(C)cc3)n2n1 (stereo not given) 7.53%
CCN1CCN(c2c(S(=O)(=O)c3ccc(OC)cc3)cnc3cc(OC)c(OC)cc23)CC1 1.1%
Cc1c(C(=O)NCc2ccccc2Br)oc2c1-c1[nH]ncc1CC2 13.3%
CCc1ccc(S(=O)(=O)c2nnn3c2nc(NC2CCCCCC2)c2sccc23)cc1 9.57%
COc1ccc(OC)c(NC(=O)N2CCN(S(=O)(=O)c3ccc4c(ccn4C)c3)CC2)c1 -14.7%
COc1ccc(C(CNC(=O)c2oc3ccc(C)cc3c2C)N2CCOCC2)cc1 (stereo not given) 3.06%
COc1ccc(OC)c(NC(=O)Cn2c(=O)n(Cc3ccccc3)c(=O)c3ccccc32)c1 -15.4%
CCn1cc(C(=O)N2CCN(c3cccc(Cl)c3)CC2)c(=O)c2cc(S(=O)(=O)N3CCCCC3)ccc21 -5.37%
O=C(NCc1ccccc1Cl)C(=O)NCC(c1cccs1)S(=O)(=O)c1cccs1 (stereo not given) -25.6%
CCCSCCCNC(=O)C1CCN(c2nn3cc(-c4ccc(F)cc4)nc3s2)CC1 -5.97%
Cc1ccc2nc(-c3ccc(O)cc3)c(Nc3ccc4c(c3)OCCO4)n2c1 -10.8%
CC(C)Cn1c(=O)c2ccccc2n2c(CCC(=O)N3CCN(c4ccccc4F)CC3)nnc12 3.35%
CCOC(=O)c1c(C)oc2ncnc(Nc3ccc(OCC)cc3)c12 6.09%
Cc1ccc(C)c(N2C(=O)N(Cc3cc(=O)n4ccccc4n3)c3ccccc3S2(=O)=O)c1 -12%
COc1cccc(C(=O)c2sc3nc(-c4ccccc4)cc(C(F)(F)F)c3c2N)c1 -20.3%
Cc1ccc(C)n1-c1nnc(N2CCCC(C(=O)Nc3ccc(C(C)C)cc3)C2)s1 (stereo not given) -20.5%
N#Cc1ccccc1NC(=O)Cn1cnc2onc(-c3cccc(F)c3)c2c1=O -10.1%
Cn1ccc2cc(S(=O)(=O)N3CCC(C(=O)NCCc4ccccc4)CC3)ccc21 1.32%
CCCCOc1ccc(C(=O)Nc2ccc(-c3nc4ccccc4s3)cc2C)cc1 -3.65%
COc1cc(C)ccc1OCCSc1nc2ccc(NC(=O)c3ccc(F)cc3)cc2s1 2.02%
O=C(COc1ccccc1F)Nc1ccc(-c2nc3ccccc3s2)cc1 -5.58%
CCc1cccc(NC(=O)Nc2csc3c2CCCC3)c1 -13.1%
Cc1ccc(C)c(S(=O)(=O)c2cn(Cc3ccccc3)c3cc(F)c(F)cc3c2=O)c1 -4.36%
CNC(=O)c1ccc2c(c1)N=C(C)c1cc(C)ccc1S2 -4.61%
CC1CCN(c2oc(-c3cccs3)nc2S(=O)(=O)c2ccc(Cl)cc2)CC1 -1.02%
Cc1ccc(CNC(=O)c2ccc(-n3c(C)cc4c3CCCC4)cc2)cc1 -7.81%
COc1ccc2oc(-c3ccc(C)c(NC(=O)c4cccnc4)c3)nc2c1 0.492%
O=C(Cn1cc(SCc2cccc(F)c2)c2ccccc21)N1CCOCC1 -4.22%
CCCC(=O)OC1=CN(Cc2ccccc2)S(=O)(=O)c2ccccc21 0.568%
Cc1cccc(CSc2cn(CC(=O)N3CCCCC3)c3ccccc23)c1 -17.2%
Cc1cc(C)c2sc(N(Cc3cccnc3)C(=O)CCS(=O)(=O)c3ccccc3)nc2c1 -26.4%
CCOC(=O)c1c(SCC(=O)Nc2nc3ccc(C)cc3s2)nc(=O)[nH]c1C 3.06%
CN(C)C(=N)N=C(N)N -12.9%
COC(=O)CSc1nc2c(cnn2-c2ccc(F)cc2)c(=O)[nH]1 2.7%
CCOC(=O)c1cnc2ccc(C)cc2c1Nc1ccc(OCc2ccccc2Cl)cc1 12.7%
CC(=O)N1c2ccc(S(=O)(=O)N3CCN(c4ccc(C)cc4C)CC3)cc2CC1C (stereo not given) 2.91%
CCOc1ccc(N(c2nc(-c3ccc(OC)c(OC)c3)no2)c2nc(-c3ccc(OC)c(OC)c3)no2)cc1 -12.8%
CC(C)CNC(=O)CCSc1nc(-c2ccc3c(c2)OCO3)cc(C(F)(F)F)n1 14.1%
Cc1oc(-c2cccc(Br)c2)nc1CN1CCC(C(=O)NCCc2ccc(Cl)cc2)CC1 -7.19%
CC(C)[C@H](N)C(=O)OCCOCn1cnc2c(=O)[nH]c(N)nc21 3.09%
Cc1ccc(C)c(N2CCN(c3ccc(NC(=O)c4cccs4)cc3C(=O)O)CC2)c1 12.6%
O=C(Cn1c(=O)n(Cc2nc(-c3ccccc3)no2)c(=O)c2cc3c(cc21)OCO3)Nc1ccc(Cl)cc1 11.9%
CN(C)c1ccc(NC(=O)CCSc2nc(-c3ccco3)cc(C(F)(F)F)n2)cc1 -10.7%
CCCCN(C)S(=O)(=O)c1cc(-c2nnc3c4ccccc4c(C)nn23)ccc1C -1.9%
COc1cccc(OC)c1-c1cc(C(=O)NC2(C(=O)O)C3CC4CC(C3)CC2C4)nn1-c1ccnc2cc(Cl)ccc12 (stereo not given) 12.7%
CCc1ccc(-n2nc(C)c3c(C)cc(=O)n(CC(=O)Nc4ccc(C)c(F)c4)c32)cc1 10.8%
Cn1c(=O)n(C)c2cc(NS(=O)(=O)c3ccc(Br)cc3)c(NCc3ccccc3)cc21 5.89%
CCN(CC)CCCNC(=O)c1c(C)oc2ncn(CC(C)C)c(=O)c12 -7.69%
NC(=O)c1ncn([C@@H]2O[C@H](CO)[C@@H](O)[C@@H]2O)n1 -12%
CCOc1ccc(-n2c(=O)c3c(C)c(C)sc3n(CC(=O)c3ccccc3)c2=O)cc1 -3.11%
CC1CCc2c(sc(NC(=O)CCCOc3ccc(C(C)(C)C)cc3)c2C(N)=O)C1 (stereo not given) 0.627%
COc1cc(Br)c(C2CC(=O)Nc3cc(OC)c(OC)c(OC)c32)cc1OC (stereo not given) -2.46%
CCCCc1nc2ccccc2n2c(-c3ccc(C)cc3)c3c(=O)n(C)c(=O)n(C)c3c12 -1.5%

outcome, inactive:
Cc1cccc(-n2c(=O)c3c4c(sc3n3cnnc23)CCCC4)c1
Cc1cc(=O)n(Cc2cccc(Cl)c2)c2c1c(C)nn2-c1ccccc1
Cc1ccc(CNC(=O)c2ccc(Cn3c(SCc4ccccc4F)nc4cccnc43)cc2)cc1
CCOC(=O)Cn1cnc2onc(-c3ccc(F)cc3)c2c1=O
CCCn1c(-c2ccc(S(=O)(=O)N3CCOCC3)cc2)csc1=Nc1ccc(OCC)cc1
COC(=O)c1ccccc1NC(=O)Cn1c(=O)n(Cc2ccc(C(=O)NCc3ccc4c(c3)OCO4)cc2)c(=O)c2ccccc21
COc1cccc(NC(=O)CNC(=O)Cn2c(C)cc3ccccc3c2=O)c1
Cc1ccc(N(CC(=O)NCCc2ccccc2)S(=O)(=O)N(C)C)cc1
Cc1ccc(CNC(=O)c2ccc3c(c2)nc(C)n3-c2cc(C)cc(C)c2)cc1
O=C(CN1C(=O)CCc2cc(S(=O)(=O)N3CCOCC3)ccc21)NCc1ccc(F)cc1
O=C(CSc1nc2cc(C(=O)NC3CCCC3)ccc2c(=O)n1CC1CCCO1)c1ccc(F)cc1 (stereo not given)
Cc1ccc(OCC(=O)Nc2ccc3nc(SCC(=O)N4CCCC4)sc3c2)cc1
COc1cc(OC)c(NC(=O)CSc2nccn2C)cc1Cl
CCC(=O)N1N=C(c2ccc(OC)cc2)CC1c1cn(-c2ccccc2)nc1-c1cccs1 (stereo not given)
O=C(c1cc(-c2ccc(Br)cc2)n[nH]1)N1CCN(S(=O)(=O)c2ccc(Br)cc2)CC1
COc1ccccc1N(CC(=O)NCCSCc1ccccc1Cl)S(C)(=O)=O
O=C(Cn1ccn(-c2ccc(F)cc2)c(=O)c1=O)NCCc1ccccc1
CCc1ccccc1NC(=O)Cn1ncc2c(C)n(Cc3ccccc3F)c(C)c2c1=O
CCOc1ccccc1NC(=O)C(CC(C)C)NS(=O)(=O)c1ccc2c(c1)CCN2C(C)=O (stereo not given)
CCc1ccc(NC(=O)CC2C(=O)OCCN2CC)cc1 (stereo not given)
O=S(=O)(Nc1cccc(-c2ccc(N3CCCCC3)nn2)c1)c1cccc(F)c1
